Reference: the supplement of paper PMC4967469

Compound: COc1ncc(-c2ccc3nccc(-c4ccnnc4)c3c2)cc1NS(=O)(=O)c1ccc(F)cc1F [GSK2126458]
Assay: Viability of human cancer cell lines after 72 h of drug (GDSC screen)
Settings: top dose inferred
Protocol: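 Human cancer cell lines in 384-well plates, medium with 10% serum, drug for 72 h over a 256-fold dose range (nine 2-fold or five 4-fold steps up to the top dose). Adherent lines were fixed and stained with the nucleic acid dye Syto60, suspension lines read with resazurin; signal relative to control wells, capped at 0 and 100%. One two-parameter sigmoid per drug and line, fitted in a mixed model over all curves with the slope shared within a line.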

| Cell Line | AUC | IC50 [nM] |
| --- | --- | --- |
| MDA-MB-361 (breast, adherent, top dose 0.128 µM) | 0.423 | 4.92 |
| MDA-MB-415 (breast, adherent, top dose 0.128 µM) | 0.894 | > 128 |
| MDA-MB-436 (breast, adherent, top dose 0.128 µM) | 0.943 | > 128 |
| MDA-MB-453 (breast, adherent, top dose 1.024 µM) | 0.157 | 4.85 |
| MDA-MB-468 (breast, adherent, top dose 0.128 µM) | 0.663 | 22.2 |
| MDST8 (large intestine, adherent, top dose 0.128 µM) | 0.731 | 36.2 |
| ME-1 (acute myeloid leukaemia, suspension, top dose 0.128 µM) | 0.908 | > 128 |
| ME-180 (cervix, adherent, top dose 0.128 µM) | 0.464 | 6.34 |
| MEG-01 (chronic myeloid leukaemia, suspension, top dose 0.128 µM) | 0.833 | 75.9 |
| MEL-JUSO (melanoma, adherent, top dose 0.128 µM) | 0.641 | 20.6 |
| MES-SA (uterus, adherent, top dose 0.128 µM) | 0.904 | 127 |
| MFE-280 (endometrium, adherent, top dose 0.128 µM) | 0.73 | 43.8 |
| MFE-296 (endometrium, adherent, top dose 0.128 µM) | 0.783 | 58.2 |
| MFE-319 (endometrium, adherent, top dose 0.128 µM) | 0.674 | 24.1 |
| MFH-ino (soft tissue, adherent, top dose 0.128 µM) | 0.839 | 110 |
| MFM-223 (breast, adherent, top dose 0.128 µM) | 0.885 | > 128 |
| MG-63 (osteosarcoma, adherent, top dose 0.128 µM) | 0.983 | > 128 |
| MHH-ES-1 (Ewing sarcoma, adherent, top dose 0.128 µM) | 0.329 | 2.69 |
| MHH-NB-11 (neuroblastoma, adherent, top dose 0.128 µM) | 0.824 | 86.3 |
| MHH-PREB-1 (B-cell leukaemia, suspension, top dose 0.128 µM) | 0.637 | 18.3 |
| MIA-PaCa-2 (pancreas, adherent, top dose 0.128 µM) | 0.972 | > 128 |
| MKN1 (stomach, adherent, top dose 0.128 µM) | 0.736 | 39.3 |
| MKN28 (stomach, adherent, top dose 0.128 µM) | 0.925 | > 128 |
| MKN45 (stomach, adherent, top dose 0.128 µM) | 0.815 | 94.6 |
| ML-1 (thyroid, adherent, top dose 0.128 µM) | 0.848 | 121 |
| ML-2 (acute myeloid leukaemia, suspension, top dose 0.128 µM) | 0.185 | 1.05 |

| Cell Line | AUC | IC50 [nM] |
| --- | --- | --- |
| MLMA (hairy cell leukaemia, semi-adherent, top dose 0.128 µM) | 0.282 | 1.92 |
| MMAC-SF (melanoma, adherent, top dose 0.128 µM) | 0.79 | 59.8 |
| MN-60 (B-cell leukaemia, suspension, top dose 0.128 µM) | 0.407 | 4.39 |
| MOG-G-CCM (glioma, adherent, top dose 0.128 µM) | 0.619 | 18.1 |
| MOG-G-UVW (glioma, adherent, top dose 0.128 µM) | 0.68 | 25.1 |
| MOLM-13 (acute myeloid leukaemia, suspension, top dose 0.128 µM) | 0.288 | 2.11 |
| MOLP-8 (myeloma, suspension, top dose 0.128 µM) | 0.201 | 1.09 |
| MOLT-4 (lymphoblastic leukaemia, suspension, top dose 1.024 µM) | 0.168 | 8.3 |
| MOLT-13 (T-cell lymphoblastic leukaemia, suspension, top dose 0.128 µM) | 0.91 | > 128 |
| MONO-MAC-6 (acute myeloid leukaemia, suspension, top dose 0.128 µM) | 0.44 | 5.42 |
| MPP-89 (mesothelioma, adherent, top dose 0.128 µM) | 0.925 | > 128 |
| MRK-nu-1 (breast, suspension, top dose 0.128 µM) | 0.839 | 77 |
| MS751 (cervix, adherent, top dose 0.128 µM) | 0.973 | > 128 |
| MS-1 (small cell lung carcinoma, suspension, top dose 0.128 µM) | 0.588 | 13.6 |
| MSTO-211H (mesothelioma, adherent, top dose 0.128 µM) | 0.962 | > 128 |
| MY-M12 (leukaemia, suspension, top dose 0.128 µM) | 0.808 | 76.5 |
| MZ1-PC (pancreas, adherent, top dose 0.128 µM) | 0.398 | 3.91 |
| MZ2-MEL (melanoma, adherent, top dose 0.128 µM) | 0.473 | 6.66 |
| MZ7-mel (melanoma, adherent, top dose 0.128 µM) | 0.626 | 18.1 |
| Mewo (melanoma, adherent, top dose 0.128 µM) | 0.891 | > 128 |
| Mo-T (hairy cell leukaemia, suspension, top dose 0.128 µM) | 0.719 | 33.9 |
| NALM-6 (B-cell leukaemia, suspension, top dose 0.128 µM) | 0.146 | 0.834 |
| NAMALWA (Burkitt lymphoma, suspension, top dose 0.128 µM) | 0.296 | 2.38 |
| NB1 (neuroblastoma, semi-adherent, top dose 0.128 µM) | 0.917 | > 128 |
| NB5 (neuroblastoma, adherent, top dose 0.128 µM) | 0.789 | 57.5 |
| NB6 (neuroblastoma, adherent, top dose 0.128 µM) | 0.672 | 27 |

| Cell Line | AUC | IC50 [nM] |
| --- | --- | --- |
| NB7 (neuroblastoma, adherent, top dose 0.128 µM) | 0.525 | 9.37 |
| NB10 (neuroblastoma, adherent, top dose 0.128 µM) | 0.894 | > 128 |
| NB12 (neuroblastoma, adherent, top dose 0.128 µM) | 0.779 | 72 |
| NB13 (neuroblastoma, adherent, top dose 0.128 µM) | 0.913 | > 128 |
| NB14 (neuroblastoma, adherent, top dose 0.128 µM) | 0.97 | > 128 |
| NB17 (neuroblastoma, adherent, top dose 0.128 µM) | 0.814 | 83.4 |
| NB69 (neuroblastoma, adherent, top dose 0.128 µM) | 0.279 | 2.06 |
| NB(TU)1-10 (neuroblastoma, adherent, top dose 0.128 µM) | 0.982 | > 128 |
| NB-4 (acute myeloid leukaemia, suspension, top dose 0.128 µM) | 0.376 | 3.9 |
| NCC021 (kidney, adherent, top dose 0.128 µM) | 0.526 | 9.51 |
| NCI-H23 (lung adenocarcinoma, adherent, top dose 0.128 µM) | 0.954 | > 128 |
| NCI-H28 (mesothelioma, adherent, top dose 0.128 µM) | 0.946 | > 128 |
| NCI-H64 (small cell lung carcinoma, suspension, top dose 0.128 µM) | 0.457 | 6.29 |
| NCI-H69 (small cell lung carcinoma, suspension, top dose 0.128 µM) | 0.686 | 28.4 |
| NCI-H82 (small cell lung carcinoma, suspension, top dose 0.128 µM) | 0.975 | > 128 |
| NCI-H187 (small cell lung carcinoma, suspension, top dose 0.128 µM) | 0.814 | 77.6 |
| NCI-H196 (small cell lung carcinoma, adherent, top dose 0.128 µM) | 0.796 | 62.9 |
| NCI-H209 (small cell lung carcinoma, suspension, top dose 0.128 µM) | 0.806 | 70.6 |
| NCI-H211 (small cell lung carcinoma, adherent, top dose 0.128 µM) | 0.753 | 41.7 |
| NCI-H226 (lung squamous cell carcinoma, adherent, top dose 0.128 µM) | 0.863 | 120 |
| NCI-H292 (lung adenocarcinoma, adherent, top dose 0.128 µM) | 0.895 | > 128 |
| NCI-H322M (lung adenocarcinoma, suspension, top dose 0.128 µM) | 0.821 | 97.8 |
| NCI-H345 (small cell lung carcinoma, suspension, top dose 0.128 µM) | 0.957 | > 128 |
| NCI-H358 (lung adenocarcinoma, adherent, top dose 0.128 µM) | 0.576 | 13.2 |
| NCI-H441 (lung adenocarcinoma, adherent, top dose 0.128 µM) | 0.977 | > 128 |

A lower IC50 marks a more sensitive line; where the fit passes the top or lowest dose, that dose stands as a limit. The AUC spans the tested range (256-fold, ending at the top dose) of the same fit; it is 1 without any effect and falls as sensitivity rises. The top dose, if marked as inferred, was calculated from the reported fits.
